About 230 (0.21%) of roughly 110,000 compounds showed an effect of 50% or more. The list shows a part of the results.
These compounds were tested against DPAP1 (Plasmodium falciparum, UniProt Q8IIJ9) (assay: primary screen, percent inhibition; read by cleavage of a fluorogenic dipeptide substrate; higher = more effect of the substance).
Set-up: species or system P. falciparum D10 trophozoite lysates; single well
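Note: 30 min substrate incubation versus DMSO and 10 µM JCP410 controls.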

Sequence of DPAP1 (Q8IIJ9 whole entry, looked up): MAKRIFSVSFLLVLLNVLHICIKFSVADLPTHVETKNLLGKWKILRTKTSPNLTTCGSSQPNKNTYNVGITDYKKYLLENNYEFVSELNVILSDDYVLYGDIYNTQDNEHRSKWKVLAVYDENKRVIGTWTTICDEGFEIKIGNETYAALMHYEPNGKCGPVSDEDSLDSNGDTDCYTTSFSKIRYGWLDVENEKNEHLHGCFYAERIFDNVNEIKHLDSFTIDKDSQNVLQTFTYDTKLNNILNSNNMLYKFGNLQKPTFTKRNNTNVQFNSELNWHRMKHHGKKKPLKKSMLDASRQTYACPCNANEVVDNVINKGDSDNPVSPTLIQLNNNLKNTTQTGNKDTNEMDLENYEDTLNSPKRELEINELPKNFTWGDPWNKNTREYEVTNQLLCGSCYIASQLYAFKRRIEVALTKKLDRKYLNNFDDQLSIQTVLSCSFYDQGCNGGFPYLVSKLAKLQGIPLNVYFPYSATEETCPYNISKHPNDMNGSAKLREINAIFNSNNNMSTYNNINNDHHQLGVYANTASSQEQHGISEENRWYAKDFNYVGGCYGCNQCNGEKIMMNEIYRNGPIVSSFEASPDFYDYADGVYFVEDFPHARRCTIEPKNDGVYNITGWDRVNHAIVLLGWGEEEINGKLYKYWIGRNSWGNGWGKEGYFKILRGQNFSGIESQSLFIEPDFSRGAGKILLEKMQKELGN

Structure (SMILES) | % Inhibition @ 10 uM
COc1cccc(CNC(=O)C(C)n2nc(C)n3c(cc4occc43)c2=O)c1 (stereo not drawn) | 1.38%
Cc1ccsc1CN(Cc1ccco1)C(=O)COc1ccc(Cl)cc1 | 6.92%
CCOC(=O)c1ccc(OCC2c3cc(OC)c(OC)cc3CCN2C(=O)C2CCCO2)cc1 (stereo not drawn) | 4.15%
COc1ccc(OCC(=O)NCCSc2ccccn2)cc1 | -5.51%
CC(C)CCn1c(CCCNC(=O)c2ccco2)nc2ccccc21 | -1.22%
Cc1cc(Oc2nc3ccccn3c(=O)c2/C=C(\C#N)C(=O)NCC2CCCO2)ccc1Cl (stereo not drawn) | 2.16%
CCCOc1ccc(C2c3c(oc4cc(C)c(C)cc4c3=O)C(=O)N2CCCN(C)C)cc1 (stereo not drawn) | 2.31%
CN(C)S(=O)(=O)c1ccc(C(=O)OCCCNC2=NS(=O)(=O)c3ccccc32)cc1 | -1.82%
CCCCSc1ncnc2sc3c(c12)CCCC3 | 3.95%
O=C(/C=C\Nc1ccc2c(c1)OCO2)c1ccc(F)cc1 | -0.864%
CC1CN(C2CCN(CCc3ccccc3)CC2)CC(C)O1 (stereo not drawn) | 1.43%
Clc1ccccc1OCc1nn2c(-c3ccccc3)nnc2s1 | 4.96%
COc1ccc(C2C3=C(O)CCCC3=NC(C)=C2C(=O)Nc2c(F)cccc2F)c(OC)c1 (stereo not drawn) | -0.105%
CCOC(=O)c1sc(C)c2c(O)nc(-c3ccccc3)nc12 | -1.47%
Cc1ccc(S(=O)(=O)N(CC(=O)Nc2cccnc2)c2cccc(Cl)c2C)cc1 | -7.9%
COc1ccc(-c2cc(-c3ccc(OC)cc3)c(C#N)c(SCC(=O)c3ccc(Cl)cc3)n2)cc1 | 3.01%
Cc1ccc(-c2nccnn2)cc1 | -4.75%
CCOC(=O)c1cnc2cc(C)nn2c1-c1ccccc1 | 1.52%
Cc1cc(OCCN2CCOCC2)ccc1C(C)C | 1.41%
CC(C)C[C@H](NC(=O)N1CCN(CC(=O)N2CCCC2)CC1)C(=O)NCC#N | -6.98%
O=C(CCCn1c(=O)c2cccn2c2cccnc21)NC1CCCc2ccccc21 (stereo not drawn) | -5.74%
CCOc1ccc(CCNC(=O)CN(C)S(=O)(=O)c2cccc3nsnc23)cc1OCC | 2%
Cc1ccc2ccc(C)[n+](CCCS(=O)(=O)O)c2c1 | -5.63%
CCOc1ccc(/C=C2N=C(/C=C/c3ccccc3)OC/2=O)cc1 | 1.28%
CCOC(=O)c1c(NC(=O)Nc2nnc(N(C)C3CCCCC3)s2)sc2c1CCCC2 | -4.68%

Structure (SMILES) | % Inhibition @ 10 uM
Cc1ccc(C)c(NC(=O)CSC2=C(C#N)C(c3ccccc3)CC(=O)N2)c1 (stereo not drawn) | -3.1%
O=C(NC1CC1)c1ccc(CSCc2ccc(Cl)cc2)o1 | -1.34%
Cc1oc(-c2ccc(C(=O)NCc3ccc4c(c3)OCO4)cc2)nc1CSc1ccccc1 | 2.32%
COc1ccc(C2=NOC(C(=O)N(C)C3CCCCC3)C2)cc1 (stereo not drawn) | 4.74%
Cc1noc(C)c1C(=O)NC(CO)Cc1ccccc1 (stereo not drawn) | 6.17%
COc1cccc2cc(C(C)=O)oc12 | 6.99%
Cc1cc2cc(CNC(=S)NCCc3ccccc3)ccc2n1C | -5.58%
COCc1cc(C)n(CC(=O)Nc2cccc(C(F)(F)F)c2)c(=O)c1C#N | -0.736%
CC(C)(C)c1cc(C(=O)Nc2ccc(C(=O)O)cc2)cc(C(C)(C)C)c1 | -5.35%
CCC(C)c1ccc(S(=O)(=O)CCc2ccncc2)cc1 (stereo not drawn) | -2.62%
COc1ccc(C(c2c(C)nn(C(N)=S)c2O)C(C#N)C#N)cc1 (stereo not drawn) | 2.17%
COc1ccc(C2CC(C(F)(F)F)n3ncc(C(=O)Nc4ccc(F)cc4F)c3N2)cc1OC (stereo not drawn) | -2.58%
CC(C)Nc1nc(NCCO)nc(N2CCOCC2)n1 | 4.86%
Clc1ccc(-c2noc3ncnc(N(CCCN4CCOCC4)Cc4ccco4)c23)cc1 | -2.41%
CCc1ccc(CNC(=O)CCn2ccc3cc(S(=O)(=O)N4CCCC4)ccc32)cc1 | -3.43%
COc1cc2ccccc2cc1C(=O)Nc1nc(-c2cc3ccccc3oc2=O)cs1 | 1.39%
CCCCC12CN3CCN(CC(C3)C1O)C2 (stereo not drawn) | -2.22%
Cc1cc(C)c(C(=O)c2ccc(C(=O)N3CCCCC3)cc2)c(C)c1 | -5.94%
COc1ccc(OC)c(C2=NOC(C(=O)N(C)C3CCCCC3)C2)c1 (stereo not drawn) | -0.431%
COc1ccccc1CNC(=O)CN(c1cccc(F)c1)S(C)(=O)=O | -10.9%
C#CC1(C)CCC2C(O1)c1ccccc1OC2(C)C (stereo not drawn) | -1.77%
Brc1ccc(CN2CCN(c3ccccn3)CC2)cc1 | -5.41%
CC1(C)CC2=NC3=C(C(=O)c4ccccc43)C(c3cccc(O)c3)C2=C(O)C1 (stereo not drawn) | -4.68%
COc1ccc(CN2CC=C(Cc3ccccc3)CC2)cc1 | 2.23%
O=C1c2ccccc2C(=O)c2cc(S(=O)(=O)NC3CCCCC3)ccc21 | 25.4%

Structure (SMILES) | % Inhibition @ 10 uM
C=CCN1C(=O)N/C(=C/c2ccc(Sc3ccccc3)cc2)C1=O | -1.6%
CC(C)Cc1ccc2c(N)c(C(=O)Nc3ccccc3)sc2n1 | -1.98%
Cc1ccc2oc(=O)c3cc(C(=O)NCCC(C)C)sc3c2c1 | 0.809%
CCN(Cc1ccccc1)C(=O)C1CCC(CNS(=O)(=O)c2cccc3nsnc23)CC1 (stereo not drawn) | 2.93%
CNCC(O)CNC(C)(C)C (stereo not drawn) | -5.5%
CCc1c(C)sc(NC(=O)c2cnccn2)c1C(N)=O | -0.519%
Cc1ccc(-c2nnc(Cl)c3ccccc23)cc1S(=O)(=O)NC1CC(C)(C)NC(C)(C)C1 | 5.19%
CC1CN(C(=O)C(C)NS(=O)(=O)c2cccc(Cl)c2)CC(C)O1 (stereo not drawn) | 1.92%
CCOC(=N)c1nc2c(c(=O)n(C)c(=O)n2C)n1Cc1ccccc1Cl | 3.42%
COc1ccccc1-n1cc(-c2ccccc2)nc1S | 58.6%
Cc1ccccc1OCC1=NN2C(=N)/C(=C\c3coc4ccccc4c3=O)C(=O)N=C2S1 | -0.495%
Cc1ccccc1C(=O)Nc1nnc(S(=O)(=O)N(C)Cc2ccco2)s1 | -5.99%
COCc1cc(C)nc(SCC(=O)Nc2cccc(C(F)(F)F)c2)c1C#N | -4.75%
COc1ccc(NC(=O)c2c(NC(=O)Cc3ccccc3)sc3c2CCC3)cc1 | 1.83%
NS(=O)(=O)c1ccc(CCNC(=O)CCCN2C(=O)C(c3ccccc3)Oc3cccnc32)cc1 (stereo not drawn) | -5.37%
Nc1c(C(=O)Nc2ccccc2F)sc2nc3c(cc12)CCCC3 | 0.235%
COc1cccc(NC(=O)CN(c2ccccc2OC)S(=O)(=O)c2ccccc2)c1 | 0.324%
COC(=O)c1c(C)oc(C)c(C(=O)OC)c1=O | 1.91%
Cc1oc(-c2cccc(Cl)c2)nc1CN1CCCC(C(=O)NC(C)c2ccccc2)C1 (stereo not drawn) | -1.05%
CCCCCCCNc1ccc(NC(=O)c2ccccc2)c2c1C(=O)c1ccccc1C2=O | 4.26%
CCCCc1nc2sc(C(=O)OCC)c(N)c2c2c1COC(C)(C)C2 | -3.14%
CC(=O)Nc1nc(COc2ccc3ccccc3c2)cs1 | 0.343%
CCO/C(O)=C1/C(C)=NC2=C(C(=O)CC(C)(C)C2)C1c1ccc(C(=O)OC)cc1 (stereo not drawn) | -2.18%
Cc1ccc(S(=O)(=O)N2CN(Cc3cccnc3)CN=C2N)cc1 | 3.68%
Cn1c(=O)c(-c2ccccc2N)nc2ccccc21 | 8.57%

Structure (SMILES) | % Inhibition @ 10 uM
O=C(N1CCCC1)N1CCN(S(=O)(=O)c2ccccc2)CC1 | -7.32%
O=C(Nc1ccc(NC(=O)C2CCCC2)cc1)C1CCCC1 | -7.09%
CCc1c(C)sc(NC(=O)c2ccc(Br)o2)c1C(N)=O | 2.01%
O=C(NCc1nc(-c2ccc(Cl)cc2)no1)c1cccs1 | 2.14%
CCCCCn1c(=O)c(C(=O)Nc2ccc(Cl)cn2)c(O)c2ccccc21 | -2.64%
Cc1cc(/C=C2\C(=N)N3N=C(S(C)(=O)=O)SC3=NC2=O)c(C)n1-c1ccc(C(C)C)cc1 | -3.35%
N#CC1=C(N)OC2=C(C(=O)CC(c3ccccc3)C2)C1c1ccccc1Cl (stereo not drawn) | 10.8%
O=C(Nc1cc(Cl)ccc1Cl)c1cnccn1 | 1.13%
COC(=O)c1cn2c(nc3ccccc32)c(C#N)c1O | -4.04%
N#CCNC(=O)[C@@H]1CCCC[C@@H]1CS(=O)(=O)c1ccc(F)cc1 | -3.25%
CN1C2CCC1/C(=C\c1ccsc1)C(=O)/C2=C\c1ccsc1 | -6.4%
O=C(NC12CC3CC(CC(C3)C1)C2)C1CCN(c2cnccn2)CC1 | -1.11%
CCOc1ccc2c(c1)nc(NCCCO)n2CC | -7.5%
CCCCCn1c(=O)c(C(=O)Nc2ncccc2O)c(O)c2ccccc21 | 4%
Cc1ccc(-c2nc(CS(=O)(=O)CC(=O)NCCc3ccc(Cl)cc3)c(C)o2)cc1 | -0.138%
COc1ccc(NC(=O)Cn2cnc3cc(Cl)ccc3c2=O)c(OC)c1 | -5.67%
O=C(c1ccc2c(c1)ncn2-c1ccc(F)cc1F)N1CCC2(CC1)OCCO2 | 7.3%
COc1ccc(Br)cc1CNC(=O)Cn1nc(C)c2sc3ccccc3c2c1=O | -2.96%
O=C(COc1ccccc1)NCCCCc1ccccc1 | -5.82%
O=C(CCC1CCCCC1)N1CCN(Cc2ccc3c(c2)OCO3)CC1 | 0.565%
CC1(C)CC(c2nc(-c3ccc([N+](=O)[O-])cc3)cs2)CCS1 (stereo not drawn) | -3.93%
COc1ccc(OC)c(C2CC(=O)C(C(C)C)C(c3cc(OC)ccc3OC)N2)c1 (stereo not drawn) | -3.21%
O=C(Nc1ccccc1O)c1cccc(S(=O)(=O)Nc2ccc(F)cc2)c1 | 5.79%
CSc1nc(-c2ccco2)nn1C(=O)CCc1ccccc1 | -2.75%
